{"source": "PubChem BioAssay AID624472", "about": "(The Scripps Research Institute Molecular Screening Center, 2012)", "molecular_target": "Diacylglycerol lipase-beta (Mus musculus) (UniProt Q91WC9)", "sequence (Q91WC9 whole entry, looked up)": "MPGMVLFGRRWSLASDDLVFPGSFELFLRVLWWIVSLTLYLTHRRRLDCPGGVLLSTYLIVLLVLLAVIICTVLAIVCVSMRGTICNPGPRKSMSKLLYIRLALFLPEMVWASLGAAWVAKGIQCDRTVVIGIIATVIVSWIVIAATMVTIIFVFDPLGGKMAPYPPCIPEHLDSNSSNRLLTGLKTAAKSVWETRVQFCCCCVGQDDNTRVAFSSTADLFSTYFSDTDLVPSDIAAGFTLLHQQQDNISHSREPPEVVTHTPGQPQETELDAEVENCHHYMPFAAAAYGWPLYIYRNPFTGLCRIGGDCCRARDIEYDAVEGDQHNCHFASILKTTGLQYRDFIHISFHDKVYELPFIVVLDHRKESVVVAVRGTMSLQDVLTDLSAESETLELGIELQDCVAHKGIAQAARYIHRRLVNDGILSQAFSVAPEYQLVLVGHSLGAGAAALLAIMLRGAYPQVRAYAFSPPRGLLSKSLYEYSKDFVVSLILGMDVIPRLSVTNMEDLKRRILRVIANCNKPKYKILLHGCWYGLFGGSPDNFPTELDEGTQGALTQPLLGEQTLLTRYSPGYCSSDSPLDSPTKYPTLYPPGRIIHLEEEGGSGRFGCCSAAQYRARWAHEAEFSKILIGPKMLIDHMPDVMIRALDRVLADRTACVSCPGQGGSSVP", "assay": "ABHD6 inhibition in mouse proteome, late-stage follow-up, selectivity assay for DAGLb inhibitor project, biochemical, gel-based competitive ABPP, fluorescence, enantiomers (AID 624472)", "settings": "at 10 µM (top of the series)", "note": "For part of its entries the source gives two or more results. They are shown here; other results are not. An entry can have further records. The values listed for one entry are repeated measurements across runs, samples, wells, individuals or studies. Brackets tell where a record comes from. Letters count within one entry."}
{"smiles": "O=C(N1CCCCC1Cc1ccccc1)n1cc(-c2ccc(Br)cc2)nn1", "note": "(stereo unspecified)", "values": [{"measurement": "inhibition", "result": "100% [sample A] and inactive: 50% [sample B] and 100% [sample C]"}]}
